The labels stand for the following.
B1: HCLS1_Y360_E361K (peptide)
chain: EEEPVYKAEPE
B2: HGD_Y333_F329C_YF (peptide)
chain: TCRPPYFHRNC
B3: HGD_Y334_YF (peptide)
chain: FRPPFYHRNCM
B4: HBB_Y146_L142R (peptide)
chain: ARAHKYHGGGG
B5: HGD_Y249_V245F (peptide)
chain: TFINKYQGKLF
B6: HBB_Y36_V35D (peptide)
chain: RLLVDYPWTQR
B7: HBD_Y146_H147R (peptide)
chain: ALAHKYRGGGG
B8: HBG2_Y36_T39P (peptide)
chain: RLLVVYPWPQR
B9: HFE_Y342 (peptide)
chain: GAMGHYVLAER
B10: HBB_Y36_L33V (peptide)
chain: RLVVVYPWTQR
B11: HGD_Y333_R330S (peptide)
chain: TFSPPYYHRNC
B12: HBD_Y131_Q126E (peptide)
chain: EMQAAYQKVVA
B13: HCN4_Y554_D553N_YF (peptide)
chain: QRIHNYFEHRF
B14: HBD_Y36_P37H (peptide)
chain: RLLVVYHWTQR
B15: HBD_Y131 (peptide)
chain: QMQAAYQKVVA
B16: HCN4_Y554_D553N (peptide)
chain: QRIHNYYEHRY
B17: HGD_Y334_R330S (peptide)
chain: FSPPYYHRNCM
B18: HBB_Y36_P37R (peptide)
chain: RLLVVYRWTQR
B19: HGD_Y333_R330S_YF (peptide)
chain: TFSPPYFHRNC

Some of the results follow. Cut-off read from the data, not from the text of the source: active = 3.2 or more and inactive = the rest. The signal is at background level for most entries.
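Note: displayed peptides selected on beads carrying the immobilized SH2 domain, with library peptides lacking any tyrosine serving as negative controls.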

One test addresses SHP2 C-SH2 domain E139D. The test can be described thus: enrichment score (SH2-bound / input frequency) (ratio); bacterial display of known human phosphotyrosine sites (pTyr-Var adds point mutants) read by sequencing; higher = stronger binding; tyrosines were phosphorylated by kinases first. Conditions: peptide library: pTyr-Var.
Consider B1, for which the enrichment score was inactive: 0.41.
Still for that read-out and setting: the same measure for B2: inactive: 2.36; for B3: inactive: 2.97.
On the same count and under the same terms, next, B4: inactive: 0.73.
On the same count and under the same terms, next, B5: inactive: 1.1; B6: inactive: 1.16.
On to B7, for which the enrichment score was inactive: 0.512.
Still for that read-out and setting: the same measure for B8: inactive: 2.27; for B9: inactive: 0.694.
The same measure, in the same setting: next, B10: inactive: 1.15; B11: inactive: 0.842; B12: inactive: 0.715.
The same measure, in the same setting: the same measure for B13: inactive: 2.96.
For B14, the enrichment score is active: 3.49.
Still for that read-out and setting: next, B15: inactive: 0.706.
On the same count and under the same terms, the same measure for B16: inactive: 2.6; for B17: inactive: 1.4; for B18: inactive: 0.274.
The same measure, in the same setting: next, B19: inactive: 0.931.

For a further test, the target named is SHP2 C-SH2 domain wild-type. Described as above. Conditions: peptide library: pTyr-Var.
On to B1, for which the enrichment score was inactive: 0.57.
The same measure, in the same setting: the same measure for B2: inactive: 1.82.
Still for that read-out and setting: next, B3: inactive: 2.39.
On the same count and under the same terms, the same measure for B4: inactive: 0.82.
Take B5: the enrichment score was inactive: 0.973.
Still for that read-out and setting: the same measure for B6: inactive: 1.13.
Same read-out and setting: the same measure for B7: inactive: 0.605.
In the case of B8, the enrichment score is inactive: 2.12.
For the molecule B9, the enrichment score was inactive: 0.863.
The same measure, in the same setting: the same measure for B10: inactive: 1.06; for B11: inactive: 0.862.
The same measure, in the same setting: next, B12: inactive: 0.618.
Still for that read-out and setting: next, B13: inactive: 2.46; B14: active: 3.27; B15: inactive: 0.905.
Take B16: the enrichment score was inactive: 2.03.
Still for that read-out and setting: the same measure for B17: inactive: 1.3; for B18: inactive: 0.236; for B19: inactive: 0.829.

The target of a further test is SHP2 N-SH2 domain L43F. The description is as above. As to conditions: peptide library: pTyr-Var.
With B1, the enrichment score is inactive: 0.485.
On the same count and under the same terms, the same measure for B2: inactive: 1.81; for B3: inactive: 2.76; for B4: inactive: 0.823.
As for B5, the enrichment score was inactive: 0.808.
On the same count and under the same terms, next, B6: inactive: 1.17; B7: inactive: 0.422; B8: inactive: 2.17.
Same read-out and setting: next, B9: inactive: 0.674; B10: inactive: 0.98; B11: inactive: 0.746.
The same measure, in the same setting: next, B12: inactive: 0.91.
On to B13, for which the enrichment score is inactive: 2.38.
With B14, the enrichment score was active: 3.72.
Same read-out and setting: next, B15: inactive: 1.01; B16: inactive: 2.28; B17: inactive: 1.17.
The same measure, in the same setting: next, B18: inactive: 0.385.
On the same count and under the same terms, the same measure for B19: inactive: 0.838.

The target in a further test is SHP2 N-SH2 domain T42A. The description is as above. Conditions: peptide library: pTyr-Var.
As for B1, the enrichment score was inactive: 0.343.
B2: the enrichment score is inactive: 1.71.
On the same count and under the same terms, next, B3: inactive: 2.37; B4: inactive: 0.693.
B5: the enrichment score is inactive: 0.954.
Same read-out and setting: the same measure for B6: inactive: 0.873; for B7: inactive: 0.46; for B8: inactive: 1.87.
With B9, the enrichment score was inactive: 0.648.
Consider B10, for which the enrichment score was inactive: 1.35.
Same read-out and setting: next, B11: inactive: 0.645; B12: inactive: 0.704.
On the same count and under the same terms, next, B13: inactive: 2.5; B14: inactive: 2.52; B15: inactive: 0.844.
Still for that read-out and setting: next, B16: inactive: 1.99; B17: inactive: 1.07; B18: inactive: 0.241.
In the case of B19, the enrichment score is inactive: 1.72.

The target of a further test is SHP2 N-SH2 domain T52S. The test is described as above. Conditions: peptide library: pTyr-Var.
Take B1: the enrichment score was inactive: 0.51.
On the same count and under the same terms, next, B2: inactive: 1.95.
In the case of B3, the enrichment score is inactive: 2.91.
Same read-out and setting: next, B4: inactive: 0.782; B5: inactive: 0.888.
Still for that read-out and setting: the same measure for B6: inactive: 1.12; for B7: inactive: 0.345; for B8: inactive: 2.06.
With B9, the enrichment score was inactive: 0.626.
The same measure, in the same setting: the same measure for B10: inactive: 0.815.
Same read-out and setting: the same measure for B11: inactive: 0.691; for B12: inactive: 0.751; for B13: inactive: 2.65.
The same measure, in the same setting: next, B14: active: 3.99; B15: inactive: 0.929; B16: inactive: 2.43.
B17: the enrichment score was inactive: 1.03.
Still for that read-out and setting: next, B18: inactive: 0.184; B19: inactive: 1.11.

For the next test, the target named is SHP2 N-SH2 domain wild-type. Described as above. As to conditions: peptide library: pTyr-Var.
For B1, the enrichment score was inactive: 0.675.
Turning to B2, the enrichment score was inactive: 1.53.
Still for that read-out and setting: the same measure for B3: inactive: 2.29; for B4: inactive: 0.939; for B5: inactive: 1.
The same measure, in the same setting: the same measure for B6: inactive: 0.985; for B7: inactive: 0.588.
B8: the enrichment score is inactive: 2.3.
The same measure, in the same setting: the same measure for B9: inactive: 0.829; for B10: inactive: 1.04.
The same measure, in the same setting: the same measure for B11: inactive: 0.859; for B12: inactive: 0.718.
The same measure, in the same setting: the same measure for B13: inactive: 2.65.
B14: the enrichment score was inactive: 2.93.
Still for that read-out and setting: the same measure for B15: inactive: 0.701; for B16: inactive: 2.42; for B17: inactive: 1.47.
On the same count and under the same terms, the same measure for B18: inactive: 0.262; for B19: inactive: 1.06.

The values are drawn from the supplement of paper PMC10369915.
